Test results taken from PubChem BioAssay AID1347073 (National Center for Advancing Translational Sciences (NCATS), 2019).
About 200 (0.44%) of roughly 45,000 compounds were called active. Another 7% or so got no clear call; they are omitted. Calls follow the shape of the dose curve; as a rule, active = well fitted activation curve with a large enough effect; inconclusive = small, poorly fitted or top-dose-only effect; inactive = no such curve, though single readings can be large or run the other way. Some of the results follow.

assay: qHTS of TDP-43 Inhibitors: NCGC Sytravon Library Screen; conditions: yeast TDP-43 toxicity rescue, BacTiter-Glo growth, 24 h; series mostly up to 46.1 µM; growth rescue (activation): at the top concentration; also: 0% is about no effect; nearly all actives have a fitted effect of over 55% in size
Outline: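 TDP-43-expressing yeast, pregrown in raffinose, seeded at OD600 0.02 in galactose medium with compound for 24 hr at 30 deg C. Growth read by BacTiter-Glo luminescence, so rescue of toxicity appears as activation.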

SMILES | growth rescue (activation)
COc1cc(CNc2ccc(N3CCCC3)cc2)ccc1OCc1ccccc1 | inactive: 26.7%
Cc1ccc(CNC(=O)Cn2c(=O)n(-c3ccccc3)c(=O)c3sccc32)cc1 | inactive: -6.94%
CCCC1(c2ccccc2)NC(=O)N(C/C=C/Cl)C1=O (centres undefined) | inactive: 9.51%
Nc1c([N+](=O)[O-])c(=O)oc2ccccc12 | inactive: 11.6%
Cc1ccsc1/C=N/NC(=O)Cc1cccn1C | inactive: 30%
COc1ccccc1N=CC=C1OC(C)(C)C(C)(C)O1 | inactive: -7.06%
CCOc1ccc(/C=C(\C#N)C(=O)Nc2cccnc2)cc1 | inactive: -3.12%
CCN(CC)CC(=O)Nc1cccc(S(=O)(=O)N2CCCC2)c1 | inactive: -32.7%
COC(=O)c1ccc2c(c1)NC(=O)CS2 | inactive: 2.13%
Cc1ccc(CNC(=O)c2ccc(-n3cccc3)cc2)cc1 | inactive: 10.7%
Cc1ccc(-n2ncc3c2CCCC3NC(=O)c2cnccn2)cc1C (centres undefined) | inactive: 15.9%
CCOC(=O)C1=C(C)Nc2ccccc2S1 | inactive: -10.2%
CC(C)(C)C1(O)CC(C(F)(F)F)=NN1C(=O)CCCc1ccccc1 (centres undefined) | inactive: 8.58%
CCN(CC)S(=O)(=O)c1ccc(N/N=C/c2ccc(O)cc2)nc1 | inactive: -2.11%
COc1cccc(-c2nc(-c3ccccc3)[nH]c(=O)c2C#N)c1 | inactive: 5.69%
Cc1ccc(S(=O)(=O)N(CC(=O)Nc2ccccc2C(=O)O)c2ccccc2)cc1 | inactive: 5.06%
Cc1ccc(C)c(NC(=O)c2cc(-c3cc(C)cc(C)c3O)n[nH]2)c1 | inactive: 0.902%
CC(C)N1CCC(C)(C(=O)Nc2ccc(-n3cccc3)cc2)C1 (centres undefined) | inactive: -7.35%
CCN(CC)S(=O)(=O)c1ccc(Cl)c(C(=O)OC2CC(C)OC2=O)c1 (centres undefined) | inactive: 1.09%
COc1ccc(-n2c(C)nc3cc(C(=O)NCc4ccc5c(c4)OCO5)ccc32)cc1 | inactive: 11.8%
Cn1c(CCN2CCOCC2)nc2cc(NS(=O)(=O)c3ccccc3)ccc21 | inactive: 2.21%
O=C(CN1CCCC1)N1c2ccccc2C=Cc2ccccc21 | inactive: 0.951%
COc1ccc(C(=O)O)cc1NC(=S)NC(=O)c1ccc(-c2ccc(Cl)cc2)o1 | inactive: 10.8%
O=S(=O)(NCc1cn2ccsc2n1)c1ccc(Oc2ccccc2)cc1 | inactive: -2.14%
Cc1sc2nc(C)n(/N=C/N(C)C)c(=O)c2c1C | inactive: -16.1%
O=C(O)CSc1nnc2n(-c3ccccc3)c(=O)c3ccccc3n12 | inactive: -11.1%
CCOc1ccc2c(C)cc(=O)oc2c1OCC | inactive: 1.49%

SMILES | growth rescue (activation)
Nc1nc(-c2cccnc2)nn1C(=O)c1ccc(F)cc1 | inactive: -0.518%
Cc1ccc(NC(=O)c2ccc(Cl)nc2)cc1S(=O)(=O)N1CCOCC1 | inactive: 1.92%
Cc1cc2nnc(SCC(=O)NC3CCCCC3)n2c(N)n1 | inactive: -14.5%
Cc1c(NC(=O)c2ccc(NS(=O)(=O)c3ccccc3)cc2)c(=O)n(-c2ccccc2)n1C | inactive: -35.9%
CC1(C(=O)NS(=O)(=O)c2ccc(Br)cc2)CCN1C(=O)Cc1ccsc1 (centres undefined) | inactive: 2.24%
c1ccc(OCCCc2nc(-c3ccccn3)no2)cc1 | inactive: 9.51%
O=C(Nc1ccc(Cl)c(S(=O)(=O)N2CCOCC2)c1)c1ccncc1 | inactive: -12.3%
N#C/C(=C/c1ccc(OCc2ccc(C(=O)O)cc2)c(Br)c1)c1cccc(F)c1 | inactive: 12.8%
O=C(O)CCN1c2cccc3cccc(c23)S1(=O)=O | inactive: -7.33%
Cn1nc(C(=O)NNC(=O)c2cccc(Cl)c2)c2ccccc2c1=O | inactive: 18.6%
O=C(NCCCN1CCN(c2ccc(F)cc2)CC1)NC12CC3CC(CC(C3)C1)C2 | inactive: -3.04%
Cc1cc(=O)[nH]c(N/N=C/c2sccc2C)n1 | inactive: 20%
O=C(Cc1ccccc1)Nc1ccc(F)cc1 | inactive: 10.3%
Cc1cc(C=O)c(C)n1-c1ccc(Cl)c(C(=O)O)c1 | inactive: -0.695%
CCN(C(=O)COC(=O)c1cnccn1)c1cccc2ccccc12 | inactive: 9.83%
CCOCCCN(CC(=O)NC1CCCC1)C(=O)C(=O)Nc1ccc2c(c1)OCCO2 | inactive: 4.48%
CC(C)(C)C1(O)CC(C(F)(F)F)=NN1C(=O)Cc1ccc([N+](=O)[O-])cc1 (centres undefined) | inactive: 10.9%
COc1cc(OC)cc(C(=O)NC(=S)Nc2ccc(NC(=O)c3ccco3)cc2)c1 | inactive: 12.6%
CCCc1cc(=O)[nH]c(SCC(=O)c2cc(C)n(-c3cc(C)on3)c2C)n1 | inactive: 19.5%
CC(=O)C(Cc1ccccc1)NC(=O)COc1ccc2c(c1)OCO2 (centres undefined) | inactive: 31.4%
Cc1ccc(-c2nc3ccccc3nc2-c2ccccc2)cc1 | inactive: 7.97%
CCCNC(=O)Nc1ccc(F)c(Cl)c1 | inactive: 11.9%
O=S(=O)(NC1c2cccc3cccc(c23)C1N1CCN(CCO)CC1)c1ccccc1 (centres undefined) | inactive: 0.257%
COC(=O)c1ccc(-c2noc(CN(C)CCC3CCCCO3)n2)cc1 (centres undefined) | inactive: 7.08%
O=C(O)c1ccc(Cn2cnc3sc4c(c3c2=O)CCCC4)cc1 | inactive: 17.2%
CC(C)[C@H](NC(=O)c1ccccc1)C(=O)NCCc1ccccc1 | inactive: -16.9%
Cc1n[nH]c(C)c1CCC(=O)N/N=C/c1cccc([N+](=O)[O-])c1 | inactive: -2.52%
